{"source": "patent US20260297081A1", "about": "“COMPOUNDS AND METHODS OF TREATING CANCERS” (Cullgen Inc., priority 2023, published 2026)", "system": "cyclin D1", "assay": "HiBiT detection of HiBiT-tagged cyclin D1 protein level in MCF7 cells, 16 hours (Table 8)", "assay_type": "cell-based", "conditions": "MCF7 cells stably expressing HiBiT tagged target proteins", "note": "The name of at least one read-out is uncertain."}
{"molecule": "CC(=O)c1c(C)c2cnc(Nc3ccc(N4CCN(C5CCN(C(=O)[C@H]6CC[C@H](Nc7nc(NC(C)C)ccc7-c7nc8cc(N(C)C)ccc8[nH]7)CC6)C5)CC4)cn3)nc2n(C2CCCC2)c1=O", "note": "(relative stereo) [CPD-540, trans-6-acetyl-8-cyclopentyl-2-((5-(4-(1-(4-((3-(5-(dimethylamino)-1H-benzo[d]imidazol-2-yl)-6-(isopropylamino)pyridin-2-yl)amino)cyclohexane-1-carbonyl)pyrrolidin-3-yl)piperazin-1-yl)pyridin-2-yl)amino)-5-methylpyrido[2,3-d]pyrimidin-7(8H)-one]", "values": [{"measurement": "% Cyclin D1 Relative Level (10 nM)", "value": "C (Relative protein level >85%)"}]}
{"molecule": "CC(=O)c1c(C)c2cnc(Nc3ccc(N4CCN(C5CCN(C(=O)[C@H]6CC[C@H](Nc7nc(NC(C)C)ccc7-c7nc8ccc(N(C)C)nc8[nH]7)CC6)C5)CC4)cn3)nc2n(C2CCCC2)c1=O", "note": "(relative stereo) [CPD-546, trans-6-acetyl-8-cyclopentyl-2-((5-(4-(1-(4-((3-(5-(dimethylamino)-3H-imidazo[4,5-b]pyridin-2-yl)-6-(isopropylamino)pyridin-2-yl)amino)cyclohexane-1-carbonyl)pyrrolidin-3-yl)piperazin-1-yl)pyridin-2-yl)amino)-5-methylpyrido[2,3-d]pyrimidin-7(8H)-one]", "values": [{"measurement": "% Cyclin D1 Relative Level (10 nM)", "value": "B (55%< Relative protein level ≤85%)"}, {"measurement": "% Cyclin D1 Relative Level (100 nM)", "value": "A (Relative protein level ≤55%)"}]}
{"molecule": "CC(=O)c1c(C)c2cnc(Nc3ccc(N4CCN(C(C)CC(=O)N5CC6(CC(Nc7nc(NC(C)C)ccc7C(=O)Nc7ccc(N(C)C)nn7)C6)C5)CC4)cn3)nc2n(C2CCCC2)c1=O", "note": "(stereo not drawn) [CPD-368, 2-((2-(3-(4-(6-((6-acetyl-8-cyclopentyl-5-methyl-7-oxo-7,8-dihydropyrido[2,3-d]pyrimidin-2-yl)amino)pyridin-3-yl)piperazin-1-yl)butanoyl)-2-azaspiro[3.3]heptan-6-yl)amino)-N-(6-(dimethylamino)pyridazin-3-yl)-6-(isopropylamino)nicotinamide]", "values": [{"measurement": "% Cyclin D1 Relative Level (10 nM)", "value": "A (Relative protein level ≤55%)"}, {"measurement": "% Cyclin D1 Relative Level (100 nM)", "value": "A (Relative protein level ≤55%)"}]}
{"molecule": "CC(=O)c1c(C)c2cnc(Nc3ccc(N4CCN(C5CCN(C(=O)[C@H]6CC[C@@H](Nc7nc(NC(C)C)ccc7C(=O)Nc7ccc(N(C)C)nn7)C6)C5)CC4)cn3)nc2n(C2CCCC2)c1=O", "note": "(stereo partly drawn) [CPD-403, 2-(((1R,3S)-3-(3-(4-(6-((6-acetyl-8-cyclopentyl-5-methyl-7-oxo-7,8-dihydropyrido[2,3-d]pyrimidin-2-yl)amino)pyridin-3-yl)piperazin-1-yl)pyrrolidine-1-carbonyl)cyclopentyl)amino)-N-(6-(dimethylamino)pyridazin-3-yl)-6-(isopropylamino)nicotinamide]", "values": [{"measurement": "% Cyclin D1 Relative Level (10 nM)", "value": "B (55%< Relative protein level ≤85%)"}, {"measurement": "% Cyclin D1 Relative Level (100 nM)", "value": "A (Relative protein level ≤55%)"}]}
{"molecule": "CC(=O)c1c(C)c2cnc(Nc3ccc(N4CCC5(CC4)CC5C(=O)N4CCC(Nc5nc(NC(C)C)ccc5C(=O)Nc5ccc(N(C)C)nn5)CC4)cn3)nc2n(C2CCCC2)c1=O", "note": "(stereo not drawn) [CPD-407, 2-((1-(6-(6-((6-acetyl-8-cyclopentyl-5-methyl-7-oxo-7,8-dihydropyrido[2,3-d]pyrimidin-2-yl)amino)pyridin-3-yl)-6-azaspiro[2.5]octane-1-carbonyl)piperidin-4-yl)amino)-N-(6-(dimethylamino)pyridazin-3-yl)-6-(isopropylamino)nicotinamide]", "values": [{"measurement": "% Cyclin D1 Relative Level (10 nM)", "value": "A (Relative protein level ≤55%)"}, {"measurement": "% Cyclin D1 Relative Level (100 nM)", "value": "A (Relative protein level ≤55%)"}]}
